Laboratory results reported in the supplement of paper PMC10670038.
± gives the standard deviation of the averaged measurements. The lowest values were mostly taken out for another list; the other results follow.

Each compound was assayed on TE10 (assay: relative cell viability vs DMSO, compound + 0.2 uM CuET (fraction); TE10 is an esophageal squamous carcinoma line; higher = less cytotoxic). Conditions: 2 µM; co-treatment: CuET (bis(diethyldithiocarbamate)copper) 0.2 uM; 48 h.
Experimental: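 TE10 ESCC cells (1,000/well, 384-well plates) were treated with Selleck bioactive library compounds at 2 uM combined with 0.2 uM CuET (copper diethyldithiocarbamate) for 48 h. Viability was read by CellTiter-Glo and expressed relative to DMSO wells. Two technical replicates (A, B).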

Compound	relative cell viability
Cc1ccc(C(=O)NCCCCCC(=O)Nc2ccccc2N)cc1	0.856 ± 0.019
Cc1ccccc1-n1c(Cn2nc(-c3cccc(O)c3)c3c(N)ncnc32)nc2cccc(C)c2c1=O	1.06 ± 0.084
CN1C2CCC1CC(OC(=O)C(O)c1ccccc1)C2 (stereo not given) [Homatropine Bromide]	1.25 ± 0.21
Cc1nc2c(-c3cnc(N)nc3)nc(N3CCOCC3)nc2n1C(C)C	0.6108 ± 0.0027
COC(=O)C(CCCN=C(N)N)NS(=O)(=O)c1ccc(C)cc1 (stereo not given)	1.06 ± 0.066
